Reference: doi:10.1101/2020.12.24.423824 (bioRxiv, 2020)

Columns and labels:
Vps26A-nLuc = Vps26A-nLuc (UniProt O75436); assay: FRET or BRET
RlucII-CLN3 = molecular target: T1, RlucII-CLN3 (UniProt Q13286 1-438); assay: FRET or BRET
T1 sequence (looked up): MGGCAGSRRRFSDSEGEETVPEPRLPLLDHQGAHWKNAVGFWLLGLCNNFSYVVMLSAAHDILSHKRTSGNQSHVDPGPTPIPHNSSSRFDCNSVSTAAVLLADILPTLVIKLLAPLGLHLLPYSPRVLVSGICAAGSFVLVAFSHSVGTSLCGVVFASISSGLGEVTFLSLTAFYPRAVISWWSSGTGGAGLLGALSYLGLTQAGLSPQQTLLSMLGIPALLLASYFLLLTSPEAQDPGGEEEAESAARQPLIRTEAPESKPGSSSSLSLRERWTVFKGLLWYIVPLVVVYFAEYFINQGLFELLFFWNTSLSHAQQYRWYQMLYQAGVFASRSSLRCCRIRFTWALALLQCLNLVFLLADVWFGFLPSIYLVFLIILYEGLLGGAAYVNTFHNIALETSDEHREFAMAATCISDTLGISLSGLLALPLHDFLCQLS

Vps26A-nLuc, sequence (O75436 whole entry): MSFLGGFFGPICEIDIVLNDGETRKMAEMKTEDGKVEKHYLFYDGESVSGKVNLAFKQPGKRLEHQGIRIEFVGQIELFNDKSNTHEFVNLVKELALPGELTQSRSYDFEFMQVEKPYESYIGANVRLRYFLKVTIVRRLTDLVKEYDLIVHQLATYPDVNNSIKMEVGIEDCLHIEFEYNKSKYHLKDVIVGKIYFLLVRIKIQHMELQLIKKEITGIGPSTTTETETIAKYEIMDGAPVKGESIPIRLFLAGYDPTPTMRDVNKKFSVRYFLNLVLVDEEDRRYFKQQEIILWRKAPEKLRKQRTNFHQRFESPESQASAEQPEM

B1: sortilin-YFP (receptor)
chain: [letters of about 700 residues left out]SVPIILAIVGLMLVTVVAGVLIVKKYVCGGRFLVHRYSVLQQHAEANGVDGVDALDTASHTNKSGYHDDSDEDLLE
Question: For B1, which “fold increase of BRET50 in CLN5KO cells against wild-type HeLa cells” value (Vps26A-nLuc) is on record?
Answer: The value was 4 fold.

Question: What about the “fold increase of BRET50 in CLN5KO cells against wild-type HeLa cells” value (RlucII-CLN3) of the same binder?
Answer: The value was 6 fold.
